From the antibiotic and cytotoxicity screens of Wong et al. (2023)
This is one part of the list.

Tested on: HSkMC (human skeletal muscle cells)
Test: cytotoxicity call (relative viability < 0.9)
Conditions: 10 µM

Compound | cytotoxicity call
COc1ccccc1C#Cc1ccc2c(c1)O[C@@H](CN(C)C(C)=O)[C@H](C)CN([C@@H](C)CO)S2(=O)=O | inactive
O=C(NCC(F)(F)F)[C@@H]1c2ccccc2C(=O)N(Cc2ccccc2C(F)(F)F)[C@H]1c1ccc(CO)cc1 | inactive
CN(C)CCCNC(=O)C[C@@H]1CC[C@H]2[C@H](COc3ccc(NS(C)(=O)=O)cc3C(=O)N2C)O1 | inactive
C[C@@H]1CN([C@@H](C)CO)C(=O)Cc2cc(NS(=O)(=O)c3cn(C)cn3)ccc2O[C@H]1CN(C)Cc1ccncc1 | inactive
C[C@H]1CCCCO[C@H](CN(C)Cc2ccc3c(c2)OCO3)[C@@H](C)CN([C@@H](C)CO)C(=O)c2cc(NC(=O)CCC(F)(F)F)ccc2O1 | inactive
O=C(C[C@H]1CC[C@H]2[C@@H](COC[C@@H](O)CN2C(=O)c2ccc3c(c2)OCO3)O1)NCCN1CCCCC1 | inactive
Cc1ccc(S(=O)(=O)Nc2ccc3c(c2)C(=O)N([C@H](C)CO)C[C@H](C)[C@H](CN(C)C(=O)Nc2ccccc2)OCCCC[C@@H](C)O3)cc1 | inactive
COc1ccc(CN(C)C[C@@H]2OCCCC[C@H](C)Oc3ccc(NC(=O)C4CCCCC4)cc3C(=O)N([C@@H](C)CO)C[C@@H]2C)cc1 | inactive
C[C@@H]1CCCCO[C@H](CN(C)S(=O)(=O)c2ccccc2)[C@@H](C)CN([C@@H](C)CO)C(=O)c2cc(NC(=O)Nc3ccc(F)cc3)ccc2O1 | inactive
O=C(COP(=O)(O)O)[C@@H](O)[C@H](O)[C@H](O)COP(=O)(O)O | inactive
Cc1ccc(S(=O)(=O)Nc2ccc3c(c2)C(=O)N([C@H](C)CO)C[C@@H](C)[C@H](CN(C)C(=O)Nc2ccc(F)cc2)OCCCC[C@H](C)O3)cc1 | active
